Measured values from PMC4336329 (PLoS ONE, 2015).
Out of some 310,000 compounds screened, about 2,200 (0.71%) showed an effect of 50% or more. The effect is printed as a negative number. The list shows a part of the results. Where a SMILES comes first, the peptide text is derived from it. [ ]: non-standard residue; d: D form. The star is where a group is joined. ξ: configuration not given here. Piv = CC(C)(C)C(=O)*; ξNva = CCCC(N)C(=O)O

Target: human ether-à-go-go-related gene (hERG) potassium channel (human, UniProt Q12809)
Assay: primary screen, population patch clamp on CHO cells stably expressing hERG

Chain of human ether-à-go-go-related gene (hERG) potassium channel (Q12809 whole entry, looked up): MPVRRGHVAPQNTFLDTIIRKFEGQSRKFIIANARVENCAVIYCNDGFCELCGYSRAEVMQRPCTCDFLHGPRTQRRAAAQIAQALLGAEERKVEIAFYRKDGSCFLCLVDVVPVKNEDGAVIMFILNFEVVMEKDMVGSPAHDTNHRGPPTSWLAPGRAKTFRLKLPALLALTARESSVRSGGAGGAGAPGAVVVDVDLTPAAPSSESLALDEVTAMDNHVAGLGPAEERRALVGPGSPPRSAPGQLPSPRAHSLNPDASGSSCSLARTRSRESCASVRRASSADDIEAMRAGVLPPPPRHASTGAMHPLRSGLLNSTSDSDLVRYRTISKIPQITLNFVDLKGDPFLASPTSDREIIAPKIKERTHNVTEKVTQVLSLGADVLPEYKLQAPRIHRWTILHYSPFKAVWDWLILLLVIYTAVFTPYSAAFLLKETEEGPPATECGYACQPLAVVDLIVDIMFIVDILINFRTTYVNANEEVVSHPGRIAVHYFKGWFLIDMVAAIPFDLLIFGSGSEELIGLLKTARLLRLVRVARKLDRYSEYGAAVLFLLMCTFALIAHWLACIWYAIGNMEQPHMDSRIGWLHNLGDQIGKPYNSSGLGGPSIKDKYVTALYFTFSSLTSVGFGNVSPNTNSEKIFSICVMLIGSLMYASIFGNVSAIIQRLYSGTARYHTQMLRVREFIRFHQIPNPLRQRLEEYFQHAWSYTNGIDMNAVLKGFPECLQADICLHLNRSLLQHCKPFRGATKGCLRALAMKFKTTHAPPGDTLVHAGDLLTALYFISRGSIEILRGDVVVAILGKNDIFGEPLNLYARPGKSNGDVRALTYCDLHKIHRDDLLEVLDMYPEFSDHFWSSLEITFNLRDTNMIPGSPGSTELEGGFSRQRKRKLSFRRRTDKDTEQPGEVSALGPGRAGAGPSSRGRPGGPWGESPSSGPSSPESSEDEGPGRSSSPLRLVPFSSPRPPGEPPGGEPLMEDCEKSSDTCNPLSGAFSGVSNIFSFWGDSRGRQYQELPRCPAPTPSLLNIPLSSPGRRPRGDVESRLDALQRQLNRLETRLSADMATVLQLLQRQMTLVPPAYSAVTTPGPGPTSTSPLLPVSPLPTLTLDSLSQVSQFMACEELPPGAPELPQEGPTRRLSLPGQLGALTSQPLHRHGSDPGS

SMILES	hERG current change (%, negative = inhibition) at 1uM
O=c1[nH]c(=S)[nH]c(O)c1/C=C1/C=c2ccccc2=N1	16.8%
CC(C)C[C@H](NC(=O)c1nc[nH]c1C(=O)N1CCc2ccccc2C1)C(=O)OCc1ccccc1	6.56%
COc1ccccc1C(=O)Nc1nnc(-c2ccc(F)cc2)s1	2.59%
COc1ccc(S(=O)(=O)NC(C)C(=O)NCc2cccnc2)cc1Cl (centres unmarked)	10.3%
C/C(=N\NC(=S)NCc1ccccc1)C1CCCCC1	12.5%
O=C(NNC(=O)C1CCCCC1)c1ccncc1	9.67%
OCCC1CN(Cc2cccn2-c2nccs2)CCN1CCc1ccccc1 (centres unmarked)	-57.1%
O=C(O)CCc1n[nH]c(=S)[nH]c1=O	5.95%
COc1cc(CNc2ncc(-c3ccc(Cl)cc3)n2C)cc(OC)c1OC.O=C(O)C(=O)O	-16%
COc1ccc(NC(=O)CCCn2cc([N+](=O)[O-])cn2)cc1	1.91%
COc1ccc(NC(=O)CC2COc3ccccc3O2)c(OC)c1 (centres unmarked)	0.807%
COc1ccccc1S(=O)(=O)Cc1ccc(C(=O)NCCCN2CCN(c3ccc(F)cc3)CC2)o1	-68.3%
COc1ccc(Nc2nnc(SCC(=O)Nc3ccc4[nH]c(=O)[nH]c4c3)s2)cc1	5.92%
Cc1cccc(NS(=O)(=O)c2ccc(C(=O)NCC(c3ccccc3)N(C)C)cc2)c1C (centres unmarked)	10.5%
CCCC(NC(=O)CNC(=O)C(C)(C)C)C(=O)O (stereo not drawn) (Piv-Gly-[ξNva]-OH)	1.25%
COC(=O)[C@]1(CC(C)C)N[C@H](c2ccc(-c3cccc(Cl)c3)cc2)[C@@H]2C(=O)N(C)C(=O)[C@@H]21.O=C(O)C(F)(F)F	10.6%
COc1cc(C2NC(=S)NC3=C2CCc2ccccc23)cc(OC)c1OC (centres unmarked)	11.5%
CCC(C)(C)n1nnnc1C(c1ccccc1F)N1CCC(C(N)=O)CC1 (centres unmarked)	10.4%
CC1Cc2ccccc2N1C(=O)Cn1cnc2ccccc2c1=O (centres unmarked)	19.3%
Cc1ccc(OCCn2c(NC(=O)c3ccco3)nc3ccccc32)cc1	-0.342%
CN(Cc1ccccc1)C(=S)NC(=O)c1ccccc1	-3.02%
O=C(COC(=O)Cc1cn2ccsc2n1)NC12CC3CC(CC(C3)C1)C2	9.85%

SMILES	hERG current change (%, negative = inhibition) at 1uM
COC(=O)C1=C(C(=O)OC)[C@@H]2Nc3ccccc3[C@@]23C[C@@H](C(=O)OC)N(C(C)=O)C3=N1	10.4%
O=C(CN1CCOCC1)c1c[nH]c2ccccc12	9.04%
O=C(NCc1ccccc1)c1ccc(Cl)cc1[N+](=O)[O-]	13.3%
Cc1occc1-c1nnc(SCC(=O)Nc2ccccc2-c2ccccc2)n1C	-4.18%
COc1ccc(Nc2nc3nonc3nc2N2CCCCC2)cc1	3.39%
O=C(N/N=C/c1ccncc1)c1ccc2c(c1)OCO2	18.1%
Cc1cc(C)c(C(=O)COC(=O)c2nn(C)c(=O)c3ccccc23)cc1C	-3.12%
CC1(C)CC(=O)C(C2c3ccccc3S(=O)(=O)c3ccccc32)C(=O)C1	16.3%
COC(=O)c1ccc(COc2ccc(/C=N/Nc3cccc(C(=O)O)c3)cc2)cc1	19.2%
C1CCCCC1.OCCN1CCN(C2Cc3cc(Cl)ccc3Sc3ccc(Cl)cc32)CC1 (centres unmarked)	15.5%
CCCc1cc(C(=O)N2CCN(C(c3ccccc3)c3ccccc3)CC2)no1	0.879%
CCSCc1nnc(SCC(=O)Nc2cccc(SC)c2)n1C	2.41%
CC1CCCCC1NC(=O)/C(C#N)=C/c1ccc2c(c1)OCCO2 (centres unmarked)	0.128%
Cc1cccc(/C(N)=N/OC(=O)c2cccnc2)c1	1.85%
O=C(CCCN1C(=O)c2cccc3cccc(c23)C1=O)N1CCc2ccccc2C1	-2.69%
CCN(CC)C(=O)Cn1cc(C(=O)C2CC2)c2ccccc21	9.94%
CCOC(=O)Cc1csc(NC(=O)CCN2C(=O)c3cccc([N+](=O)[O-])c3C2=O)n1	9.69%
COc1cc(C(=O)N(C)CCOc2ccc(C)cc2)ccc1OC1CCN(C(C)=O)CC1	11.8%
COc1cccc(CSc2nc3ccccc3[nH]2)c1	3.25%
Cc1cc(NS(=O)(=O)c2ccc(NC(=S)NC(=O)c3cccc(S(=O)(=O)N(C)C)c3)cc2)no1	7.27%
O=C(COc1cccc2ccccc12)N/N=C/c1ccc(Sc2nc3ccccc3s2)o1	29.1%
COc1cc(/C=N/Nc2cc(C)nc(N)n2)ccc1O	5.51%

SMILES	hERG current change (%, negative = inhibition) at 1uM
CN(C(=O)c1cccc(S(=O)(=O)N2CCCC2)c1)C1CCCCC1	8.18%
CCCCn1c(/N=C/c2ccc3c(c2)OCO3)nc2ccccc21	7.75%
O=C(NCc1ccccc1)NC1(C(=O)Nc2ccc3c(c2)OCCO3)CCCCC1	9%
Cc1ccc(OCc2ccc(C(=O)O)o2)cc1C	15.7%
CCCOc1ccc(N2CC(C(=O)Nc3ncccc3C)CC2=O)cc1 (centres unmarked)	6.33%
COc1ccc(-c2ccc(C(=S)N3CCN(C(C)=O)CC3)o2)cc1	-24.7%
CCOC(=O)CC(C#N)c1c[nH]c2ccccc12 (centres unmarked)	13.8%
COc1ccc(CN2CCN(Cc3csc(C(C)=O)c3)CC2CCO)c(C)c1C (centres unmarked)	-8.18%
CC(C)(C)c1ccc(Oc2coc3cc(OCC(=O)O)ccc3c2=O)cc1	-7.15%
CCN(CC)CCCn1c2c(c(SCC(=O)Nc3nc4ccccc4s3)nc1=O)CCC2	-35.9%
COc1ccc(OCCCC(=O)Oc2ccc(OC)cc2)cc1	1.13%
COc1ccc(C2c3ccc(O)cc3Oc3ncn4nc(-c5ccccn5)nc4c32)cc1OC (centres unmarked)	-50.1%
O=C(NNS(=O)(=O)c1ccccc1[N+](=O)[O-])c1ccccc1Cl	26.1%
COc1ccc(C(=O)CSc2nnc(C(CO)NC(=O)c3ccc(OC)cc3)n2C)cc1 (centres unmarked)	8.35%
N#Cc1c(C(F)(F)F)cc(-c2ccccc2)[nH]c1=O	9.98%
O=C(Nc1ccc2nc3n(c(=O)c2c1)CCCC3)c1cccc([N+](=O)[O-])c1	1.94%
CN(C)c1ccc(/C=N/NS(=O)(=O)c2ccc(Br)cc2)cc1	10.1%
CCC(=O)c1cc(F)ccc1OCC(=O)N1CCN(c2ccc(F)cc2)CC1	-43.9%
Cc1ccc(CNS(=O)(=O)c2c(C)[nH]c(C)c2C(=O)N2CCCCC2)cc1	14.5%
COCCN(C(=O)C(C)C)c1nnc(-c2ccc(C(C)(C)C)cc2)s1	9.65%
O=[N+]([O-])c1ccc(Cl)cc1	8.95%
COc1ccc(CCNC(=O)c2cccc3ccccc23)cc1OC	22%

SMILES	hERG current change (%, negative = inhibition) at 1uM
O=C(NCC(=O)N(c1cccnc1)C(C(=O)NC1CCCCC1)c1ccccc1)c1ccco1 (centres unmarked)	21.6%
CC(C)Nc1nc(-c2ccccn2)nc(-c2ccccc2)c1C#N	0.0106%
COc1cccc2cc(C(=O)NCC3CCCO3)c(=O)oc12 (centres unmarked)	11.6%
O=C(CSc1ccc(-c2ccc(F)cc2)nn1)N1CCOCC1	-3.84%
CN(C)S(=O)(=O)c1ccc(N2CCCC2)c(C(=O)NCC(=O)Nc2ccc(F)c(F)c2)c1	5.27%
COc1ccc(NC(=O)c2sccc2SCC#N)cc1	6.97%
Fc1ccccc1OCC1CCCN(Cc2nc(CC3CC3)no2)C1 (centres unmarked)	4.87%
CCn1c(SCC(=O)c2c(N)n(C3CC3)c(=O)[nH]c2=O)nnc1-c1ccoc1C	4.58%
S=c1nc2ccccc2c2nc(-c3cccnc3)[nH]n12	13.6%
COc1cccc(CN2CCN(Cc3nc(-c4cccc(F)c4F)oc3C)CC2=O)c1	-0.884%
CCCN(CC(=O)Nc1ccccc1C)C(=O)c1oc2ccc(OCC)cc2c1C	2.77%
O=C(NCc1ccncc1)c1ccc(NS(=O)(=O)c2ccccc2)cc1	8.62%
CCCCc1cc(=O)oc2c3c(cc(OCC(=O)N4CCC[C@H]4C(=O)O)c12)OC(C)(C)CC3	13.3%
Cc1ccccc1OCc1nnc(SCC(=O)Nc2ccc3nc(SCC(=O)NC(C)(C)C)sc3c2)n1C	6.82%
CCOC(=O)Cn1ncn(-c2ccc(OC(F)(F)F)cc2)c1=O	3.95%
CCOc1ccccc1C(=O)Nc1cccc(-c2ccc(N3CCOCC3)nn2)c1	2.92%
O=C(NCc1ccco1)C1CC(c2ccc(Cl)c(Cl)c2)=NO1 (centres unmarked)	16%
CCOC(=O)NC1Cc2ccccc2C1Sc1ccccn1 (centres unmarked)	17.9%
CCCCN(Cc1ccco1)C(=O)c1cc2c(=O)[nH]c3ccc(C)cc3c2s1	17.2%
N#Cc1cccc(NC(=O)CNc2cccc(S(=O)(=O)N3CCCC3)c2)c1	3.5%
